According to the supplement of paper PMC9151546:
Single values are uncertain, as repeats are few or missing.

Legend:
CHO-K1 [1] = test: relative survival (nuclei to bead ratio vs DMSO control) (% of vehicle control); higher = more surviving cells
CHO-K1 [2] = test: micronucleus frequency (% of nucleated events); higher = more micronuclei (genotoxic)
CHO-K1 [3] = test: hypodiploid nuclei frequency (% of nucleated events); higher = more hypodiploid events (aneugenic)
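For hypodiploid nuclei frequency (% of nucleated events) in this document: hypodiploid nuclei gated on a flow cytometer with 488 nm excitation after SYTOX Green staining, cultures at 37 °C, positive controls vinblastine without S9 and cyclophosphamide with S9.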
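For micronucleus frequency (% of nucleated events) in this document: cells lysed with nuclei stained by SYTOX Green, then micronucleus-gated events counted against nucleated events by flow cytometry with 488 nm excitation.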
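For relative survival (nuclei to bead ratio vs DMSO control) in this document: Lysed-cell nuclei stained with SYTOX Green and counted against counting beads by flow cytometry at 488 nm excitation, with vinblastine (no S9) and cyclophosphamide (plus S9) as positive controls.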

O=[N+]([O-])c1ccc(Oc2ccc(Cl)cc2Cl)cc1 [Nitrofen]
Conditions | hypodiploid nuclei frequency, CHO-K1 [3] [%] | micronucleus frequency, CHO-K1 [2] [%] | relative survival, CHO-K1 [1]
concentration: 4.5 (µM), S9 metabolic activation: with S9, exposure time: 3-4 hours | 0.26 | 0.92 | 125
concentration: 4.5 (µM), S9 metabolic activation: without S9, exposure time: 24 hours | 1.12 | 1.56 | 103
concentration: 5.63 (µM), S9 metabolic activation: with S9, exposure time: 3-4 hours | 0.3 | 1.26 | 111
concentration: 5.63 (µM), S9 metabolic activation: without S9, exposure time: 24 hours | 0.88 | 1.42 | 88.8
concentration: 7.04 (µM), S9 metabolic activation: with S9, exposure time: 3-4 hours | 0.14 | 0.98 | 116
concentration: 7.04 (µM), S9 metabolic activation: without S9, exposure time: 24 hours | 0.86 | 2 | 107
concentration: 8.8 (µM), S9 metabolic activation: with S9, exposure time: 3-4 hours | 0.18 | 1.54 | 112
concentration: 8.8 (µM), S9 metabolic activation: without S9, exposure time: 24 hours | 0.76 | 1.42 | 101
concentration: 11 (µM), S9 metabolic activation: with S9, exposure time: 3-4 hours | 0.22 | 1.72 | 111
concentration: 11 (µM), S9 metabolic activation: without S9, exposure time: 24 hours | 0.78 | 2.24 | 99.8
concentration: 13.7 (µM), S9 metabolic activation: with S9, exposure time: 3-4 hours | 0.22 | 1.22 | 126
concentration: 13.7 (µM), S9 metabolic activation: without S9, exposure time: 24 hours | 0.72 | 1.9 | 105
concentration: 17.2 (µM), S9 metabolic activation: with S9, exposure time: 3-4 hours | 0.22 | 1.14 | 102
concentration: 17.2 (µM), S9 metabolic activation: without S9, exposure time: 24 hours | 0.52 | 1.32 | 93.8
concentration: 21.5 (µM), S9 metabolic activation: with S9, exposure time: 3-4 hours | 0.14 | 0.98 | 131
concentration: 21.5 (µM), S9 metabolic activation: without S9, exposure time: 24 hours | 0.72 | 1.52 | 89.8
concentration: 26.8 (µM), S9 metabolic activation: with S9, exposure time: 3-4 hours | 0.3 | 1.58 | 142
concentration: 26.8 (µM), S9 metabolic activation: without S9, exposure time: 24 hours | 0.72 | 1.54 | 83.7
concentration: 33.6 (µM), S9 metabolic activation: with S9, exposure time: 3-4 hours | 0.18 | 0.96 | 126
concentration: 33.6 (µM), S9 metabolic activation: without S9, exposure time: 24 hours | 0.72 | 2 | 87.2
concentration: 41.9 (µM), S9 metabolic activation: with S9, exposure time: 3-4 hours | 0.34 | 0.8 | 128
concentration: 41.9 (µM), S9 metabolic activation: without S9, exposure time: 24 hours | 0.82 | 1.5 | 101
concentration: 52.4 (µM), S9 metabolic activation: with S9, exposure time: 3-4 hours | 0.24 | 0.66 | 93.5
concentration: 52.4 (µM), S9 metabolic activation: without S9, exposure time: 24 hours | 0.68 | 1.5 | 93.8
concentration: 65.5 (µM), S9 metabolic activation: with S9, exposure time: 3-4 hours | 0.04 | 0.9 | 105
concentration: 65.5 (µM), S9 metabolic activation: without S9, exposure time: 24 hours | 1.04 | 1.9 | 88.5
concentration: 81.9 (µM), S9 metabolic activation: with S9, exposure time: 3-4 hours | 0.26 | 1.1 | 99.7
concentration: 81.9 (µM), S9 metabolic activation: without S9, exposure time: 24 hours | 1.02 | 2.32 | 85.9
concentration: 102 (µM), S9 metabolic activation: with S9, exposure time: 3-4 hours | 0.26 | 0.86 | 57.5
concentration: 102 (µM), S9 metabolic activation: without S9, exposure time: 24 hours | 0.78 | 2.48 | 73.3
concentration: 128 (µM), S9 metabolic activation: with S9, exposure time: 3-4 hours | 0.26 | 0.68 | 86
concentration: 128 (µM), S9 metabolic activation: without S9, exposure time: 24 hours | 1.32 | 2.9 | 59.8
concentration: 160 (µM), S9 metabolic activation: with S9, exposure time: 3-4 hours | 0.3 | 1.24 | 62.6
concentration: 160 (µM), S9 metabolic activation: without S9, exposure time: 24 hours | 1.06 | 2.56 | 58.3
concentration: 200 (µM), S9 metabolic activation: with S9, exposure time: 3-4 hours | 0.24 | 1.1 | 56.8
concentration: 200 (µM), S9 metabolic activation: without S9, exposure time: 24 hours | 1.32 | 2.62 | 47.5

c1ccc2c(c1)Nc1ccccc1S2 [Phenothiazine]
Conditions | hypodiploid nuclei frequency, CHO-K1 [3] [%] | micronucleus frequency, CHO-K1 [2] [%] | relative survival, CHO-K1 [1]
concentration: 4.5 (µM), S9 metabolic activation: with S9, exposure time: 3-4 hours | 0.3 | 1.58 | 77.3
concentration: 4.5 (µM), S9 metabolic activation: without S9, exposure time: 24 hours | 0.86 | 1.02 | 103
concentration: 5.63 (µM), S9 metabolic activation: with S9, exposure time: 3-4 hours | 0.16 | 0.9 | 94.1
concentration: 5.63 (µM), S9 metabolic activation: without S9, exposure time: 24 hours | 2.18 | 0.84 | 96.3
concentration: 7.04 (µM), S9 metabolic activation: with S9, exposure time: 3-4 hours | 0.18 | 0.64 | 120
concentration: 7.04 (µM), S9 metabolic activation: without S9, exposure time: 24 hours | 12.7 | 1.16 | 84.4
concentration: 8.8 (µM), S9 metabolic activation: with S9, exposure time: 3-4 hours | 0.28 | 1.44 | 60.5
concentration: 8.8 (µM), S9 metabolic activation: without S9, exposure time: 24 hours | 50.2 | 2.24 | 52.7
concentration: 11 (µM), S9 metabolic activation: with S9, exposure time: 3-4 hours | 0.04 | 1.14 | 90
concentration: 11 (µM), S9 metabolic activation: without S9, exposure time: 24 hours | 3.4 | 0.94 | 84.7
concentration: 13.7 (µM), S9 metabolic activation: with S9, exposure time: 3-4 hours | 0.26 | 0.9 | 102
concentration: 13.7 (µM), S9 metabolic activation: without S9, exposure time: 24 hours | 1.76 | 1.12 | 98.1
concentration: 17.2 (µM), S9 metabolic activation: with S9, exposure time: 3-4 hours | 0.14 | 1.76 | 84
concentration: 17.2 (µM), S9 metabolic activation: without S9, exposure time: 24 hours | 5.5 | 1.86 | 73.1
concentration: 21.5 (µM), S9 metabolic activation: with S9, exposure time: 3-4 hours | 0.16 | 1.7 | 81.4
concentration: 21.5 (µM), S9 metabolic activation: without S9, exposure time: 24 hours | 4 | 1.98 | 96
concentration: 26.8 (µM), S9 metabolic activation: with S9, exposure time: 3-4 hours | 0.28 | 2.82 | 60
concentration: 26.8 (µM), S9 metabolic activation: without S9, exposure time: 24 hours | 0.78 | 1.04 | 90.4
concentration: 33.6 (µM), S9 metabolic activation: with S9, exposure time: 3-4 hours | 0.56 | 4.12 | 63.3
concentration: 33.6 (µM), S9 metabolic activation: without S9, exposure time: 24 hours | 1.06 | 1 | 72.5
concentration: 41.9 (µM), S9 metabolic activation: with S9, exposure time: 3-4 hours | 0.87 | 5.66 | 43
concentration: 41.9 (µM), S9 metabolic activation: without S9, exposure time: 24 hours | 1.76 | 0.92 | 75.8
concentration: 52.4 (µM), S9 metabolic activation: with S9, exposure time: 3-4 hours | – | – | 38.3
concentration: 52.4 (µM), S9 metabolic activation: without S9, exposure time: 24 hours | 5.53 | 1.34 | 70.5
concentration: 65.5 (µM), S9 metabolic activation: with S9, exposure time: 3-4 hours | – | – | 37
concentration: 65.5 (µM), S9 metabolic activation: without S9, exposure time: 24 hours | 24.9 | 1.47 | 46.8
concentration: 81.9 (µM), S9 metabolic activation: with S9, exposure time: 3-4 hours | – | – | 36.3
concentration: 81.9 (µM), S9 metabolic activation: without S9, exposure time: 24 hours | – | – | 28
concentration: 102 (µM), S9 metabolic activation: with S9, exposure time: 3-4 hours | – | – | 31.6
concentration: 102 (µM), S9 metabolic activation: without S9, exposure time: 24 hours | – | – | 19.5
concentration: 128 (µM), S9 metabolic activation: with S9, exposure time: 3-4 hours | – | – | 39.8
concentration: 128 (µM), S9 metabolic activation: without S9, exposure time: 24 hours | – | – | 18.2
concentration: 160 (µM), S9 metabolic activation: with S9, exposure time: 3-4 hours | – | – | 37.9
concentration: 160 (µM), S9 metabolic activation: without S9, exposure time: 24 hours | – | – | 20.6
concentration: 200 (µM), S9 metabolic activation: with S9, exposure time: 3-4 hours | 1.36 | 6.95 | 58
concentration: 200 (µM), S9 metabolic activation: without S9, exposure time: 24 hours | – | – | 18.4

CCCOC(=O)c1cc(O)c(O)c(O)c1 [Propyl gallate]
Conditions | hypodiploid nuclei frequency, CHO-K1 [3] [%] | micronucleus frequency, CHO-K1 [2] [%] | relative survival, CHO-K1 [1]
concentration: 4.5 (µM), S9 metabolic activation: with S9, exposure time: 3-4 hours | 0.26 | 1.02 | 111
concentration: 4.5 (µM), S9 metabolic activation: without S9, exposure time: 24 hours | 0.76 | 1.2 | 92.3
concentration: 5.63 (µM), S9 metabolic activation: with S9, exposure time: 3-4 hours | 0.24 | 1.28 | 131
concentration: 5.63 (µM), S9 metabolic activation: without S9, exposure time: 24 hours | 0.7 | 1.62 | 111
concentration: 7.04 (µM), S9 metabolic activation: with S9, exposure time: 3-4 hours | 0.28 | 0.98 | 102
concentration: 7.04 (µM), S9 metabolic activation: without S9, exposure time: 24 hours | 0.72 | 1.48 | 125
concentration: 8.8 (µM), S9 metabolic activation: with S9, exposure time: 3-4 hours | 0.2 | 1.68 | 113
concentration: 8.8 (µM), S9 metabolic activation: without S9, exposure time: 24 hours | 0.72 | 1.68 | 120
concentration: 11 (µM), S9 metabolic activation: with S9, exposure time: 3-4 hours | 0.18 | 1.36 | 111
concentration: 11 (µM), S9 metabolic activation: without S9, exposure time: 24 hours | 0.52 | 1.54 | 113
concentration: 13.7 (µM), S9 metabolic activation: with S9, exposure time: 3-4 hours | 0.22 | 1.18 | 112
concentration: 13.7 (µM), S9 metabolic activation: without S9, exposure time: 24 hours | 0.68 | 1.76 | 89
concentration: 17.2 (µM), S9 metabolic activation: with S9, exposure time: 3-4 hours | 0.32 | 1.46 | 96.2
concentration: 17.2 (µM), S9 metabolic activation: without S9, exposure time: 24 hours | 0.64 | 1.9 | 99.3
concentration: 21.5 (µM), S9 metabolic activation: with S9, exposure time: 3-4 hours | 0.24 | 1.32 | 118
concentration: 21.5 (µM), S9 metabolic activation: without S9, exposure time: 24 hours | 0.72 | 2.08 | 73.9
concentration: 26.8 (µM), S9 metabolic activation: with S9, exposure time: 3-4 hours | 0.24 | 1.54 | 87.3
concentration: 26.8 (µM), S9 metabolic activation: without S9, exposure time: 24 hours | 0.88 | 2.22 | 69.3
concentration: 33.6 (µM), S9 metabolic activation: with S9, exposure time: 3-4 hours | 0.2 | 1.52 | 94.3
concentration: 33.6 (µM), S9 metabolic activation: without S9, exposure time: 24 hours | 1.12 | 3.54 | 84.9
concentration: 41.9 (µM), S9 metabolic activation: with S9, exposure time: 3-4 hours | 0.3 | 2.96 | 88.7
concentration: 41.9 (µM), S9 metabolic activation: without S9, exposure time: 24 hours | 1.14 | 3.1 | 50.8
concentration: 52.4 (µM), S9 metabolic activation: with S9, exposure time: 3-4 hours | 0.36 | 2.74 | 72.8
concentration: 52.4 (µM), S9 metabolic activation: without S9, exposure time: 24 hours | 0.92 | 2.72 | 51.1
concentration: 65.5 (µM), S9 metabolic activation: with S9, exposure time: 3-4 hours | 0.36 | 2.16 | 62.8
concentration: 65.5 (µM), S9 metabolic activation: without S9, exposure time: 24 hours | 0.5 | 2.52 | 47.6
concentration: 81.9 (µM), S9 metabolic activation: with S9, exposure time: 3-4 hours | 0.4 | 1.8 | 64.3
concentration: 81.9 (µM), S9 metabolic activation: without S9, exposure time: 24 hours | 0.64 | 2.8 | 44.1
concentration: 102 (µM), S9 metabolic activation: with S9, exposure time: 3-4 hours | 0.2 | 2.04 | 51
concentration: 102 (µM), S9 metabolic activation: without S9, exposure time: 24 hours | 0.84 | 3.42 | 51
concentration: 128 (µM), S9 metabolic activation: with S9, exposure time: 3-4 hours | 0.18 | 1.92 | 47.5
concentration: 128 (µM), S9 metabolic activation: without S9, exposure time: 24 hours | 0.46 | 2.36 | 40.4
concentration: 160 (µM), S9 metabolic activation: with S9, exposure time: 3-4 hours | 0.38 | 1.52 | 45.5
concentration: 160 (µM), S9 metabolic activation: without S9, exposure time: 24 hours | 0.58 | 1.96 | 46.3
concentration: 200 (µM), S9 metabolic activation: with S9, exposure time: 3-4 hours | 0.4 | 1.82 | 51.7
concentration: 200 (µM), S9 metabolic activation: without S9, exposure time: 24 hours | – | – | 37.5
